In patent publication US20240117043A1 (SHANGHAI JUNSHI BIOSCIENCES, published 2024):

T1: recombinant human TIGIT (His Tag) (human, UniProt Q495A1 22-141)
T1 construct: Coated antigen of the ELISA; not shown: His tag
T1 sequence (looked up): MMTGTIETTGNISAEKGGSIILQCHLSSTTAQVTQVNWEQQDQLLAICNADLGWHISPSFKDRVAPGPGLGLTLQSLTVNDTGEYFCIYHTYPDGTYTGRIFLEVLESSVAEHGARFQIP

T2: recombinant human HX1 hCD112R Fc (human, UniProt Q6DKI7 41-171, limits assumed)
T2 construct: Coated antigen of the ELISA (Suzhou Junmeng); also called human CD112R; not shown: Fc part
T2 sequence (looked up): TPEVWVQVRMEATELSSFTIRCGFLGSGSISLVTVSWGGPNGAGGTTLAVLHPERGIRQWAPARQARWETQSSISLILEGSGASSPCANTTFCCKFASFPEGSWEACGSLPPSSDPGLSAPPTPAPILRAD


Key:
[1] = target: T1, recombinant human TIGIT (His Tag); test: ELISA, plate coated with recombinant human TIGIT (His Tag), detection with HRP anti-human IgG4 Fc; unit taken from the concentration axis [2a]
Experimental: (§1) 2. Procedures [0241] a. A 96-well plate was coated with 1.5 μg/mL recombinant human TIGIT (His Tag) (Suzhou Junmeng) as the antigen at 100 μL/well and incubated at 37° C. for 1.5 h. [0242] b. The plate was washed 4 times with 300 μL/well 1×PBST, and 2% BSA was added at 200 μL/well. The plate was blocked at 37° C. for 1.5 h. [0243] c. The plate was washed 4 times with 300 μL/well 1×PBST, and serial dilutions of the bispecific antibodies JS-1,3,5,9 and a negative control: antibody (anti-KLH hIgG4) (initial concentration 1.0 μg/mL, 3-fold serially diluted to 12 concentration points, 100 μL/well) were added. The plate was incubated at 37° C. for 1 h. [0244] d. The plate was washed 4 times with 300 μL/well 1×PBST. [0245] e. 5000-fold diluted horseradish peroxidase (HRP)-conjugated mouse anti-human IgG4 Fc antibody (Southern Biotech, 9200-05) was added at 100 μL/well, and the plate was incubated at 37° C. for 1 h. […] The plate was washed 4 times with 300 μL/well 1×PBST. [0247] g. 0.1 mg/mL TMB was added at 100 μL/well, and after the plate was incubated at 37° C. for 15 min, a 2 M solution of hydrochloric acid was added at 100 μL/well to stop the reactions. [0248] h. The absorbance was measured at 450 nm/620 nm on a microplate reader, and data were analyzed using Graphpad Prism7.

[2] = target: T2, recombinant human HX1 hCD112R Fc; test: ELISA, relative binding activity, sample kept at 40 C for 4 weeks
Experimental: (§2) The antibody samples were exchanged into a pH 5.5 buffer system (20 mM histidine-histidine hydrochloride buffer, 230 mM trehalose) with the concentration of the samples controlled at about 5 mg/mL, and the buffer was aliquoted into vials at 500 μL/vial. The vials were placed in a 40° C. incubator to test stability at 0 W, 2 W and 4 W. Samples were sent for analysis according to Table 2. Stability was assessed by the following parameters: (a) the content of antibody monomers, aggregates or fragments determined by SEC-HPLC (size exclusion chromatography); (b) the molecular weight of the antibody determined by CE-SDS (sodium dodecyl sulfate capillary electrophoresis); and (c) the bioactivity of the antibody determined by an ELISA or reporter gene assay.

[3] = target: T1, recombinant human TIGIT (His Tag); test: as above
Experimental: as §2

[4] = target: T2, recombinant human HX1 hCD112R Fc; test: ELISA, plate coated with recombinant human HX1 hCD112R Fc, detection with HRP anti-human IgG4 Fc; unit taken from the concentration axis [3a]
Experimental: (§3) 2. Procedures [0255] a. A 96-well plate was coated with 1.0 μg/mL recombinant human HX1 hCD112R Fc (Suzhou Junmeng) as the antigen at 100 μL/well and incubated at 37° C. for 1.5 h. [0256] b. The plate was washed 4 times with 300 μL/well 1×PBST, and 2% BSA was added at 200 μL/well. The plate was blocked at 37° C. for 1.5 h. [0257] c. The plate was washed 4 times with 300 μL/well 1×PBST, and serial dilutions of the bispecific antibodies JS-1,3,5,9 and a negative control: antibody (anti-KLH hIgG4) (initial concentration 3.0 μg/mL, 3-fold serially diluted to 12 concentration points, 100 μL/well) were added. The plate was incubated at 37° C. for 1 h. [0258] d. The plate was washed 4 times with 300 μL/well 1×PBST. [0259] e. 5000-fold diluted horseradish peroxidase (HRP)-conjugated mouse anti-human IgG4 Fc antibody (Southern Biotech, 9200-05) was added at 100 μL/well, and the plate was incubated at 37° C. for 1 h. [0260] f. The plate was washed 4 times with 300 μL/well 1×PBST. [0261] g. 0.1 mg/mL TMB was added at 100 μL/well, and after the plate was incubated at 37° C. for 15 min, a 2 M solution of hydrochloric acid was added at 100 μL/well to stop the reactions. […] The absorbance was measured at 450 nm/620 nm on a microplate reader, and data were analyzed using Graphpad Prism7.

[5] = target: T2, recombinant human HX1 hCD112R Fc; test: ELISA, relative binding activity, sample kept at 40 C for 0 weeks
Experimental: as §2

[6] = target: T1, recombinant human TIGIT (His Tag); test: as above
Experimental: as §2

[7] = target: T2, recombinant human HX1 hCD112R Fc; test: ELISA, relative binding activity, sample kept at 40 C for 2 weeks
Experimental: as §2

[8] = target: T1, recombinant human TIGIT (His Tag); test: as above
Experimental: as §2

[9] = target: T2, recombinant human HX1 hCD112R Fc; test: ELISA, plate coated with recombinant human HX1 hCD112R Fc, detection with HRP anti-human IgG4 Fc; unit taken from the concentration axis [3b]
Experimental: as §3

[10] = target: T1, recombinant human TIGIT (His Tag); test: ELISA, plate coated with recombinant human TIGIT (His Tag), detection with HRP anti-human IgG4 Fc; unit taken from the concentration axis [2b]
Experimental: as §1

Row | Binder | EC50 [1] [µg/mL] | CD112R binding activity Elisa (%) [2] [%] | TIGIT binding activity Elisa (%) [3] [%] | EC50 [4] [µg/mL] | CD112R binding activity Elisa (%) [5] [%] | TIGIT binding activity Elisa (%) [6] [%] | CD112R binding activity Elisa (%) [7] [%] | TIGIT binding activity Elisa (%) [8] [%] | EC50 [9] [µg/mL] | EC50 [10] [µg/mL]
1 | bispecific antibody JS-5 (IgG4) (bispecific antibody, Tetravalent) heavy: QVQLVQSGAEVKKPGASVKVSCKTSGYAFTEYTMHWVRQAPGKGLEWMGGINPNTGGTTYNQKFQGRVTLTVDKSSSTAYMELSSLRSEDTVVYYCAKLLRLMYYFDYWGQGTLVTVSSASTKGPSVFPLAPCSRSTSESTAALGCLVKDYFPEPVTVSWNSGALTSGVHTFPAVLQSSGLYSLSSVVTVPSSSLGTKTYTCNVDHKPSNTKVDKRV[human IgG4 Fc with S228P (EU numbers) omitted here]GGGSGGGGSDIVMTQSPDSLAVSLGERATINCKASQSVSNDVAWYQQKPGQPPKLLIYYVSHRFTGVPDRFSGSGSGTDFTLTISSLQAEDVAVYFCHQAYRSPWTFGCGTKLEIKGGGGSGGGGSGGGGSGGGGSEVQLVESGGGLVKPGGSLRLSCAASGFTFSSYHMSWVRQAPGKCLELVSAINSNGINTYYLDTVKGRFTISRDNAKNSLYLQMNSLRAEDTAVYYCARHEDYYGFAMDYWGQGTLVTVSS light: DIQMTQSPSSLSASVGDRVTITCQASQDVRTAVAWYQQKPGKAPKLLIYSASYRYTGVPSRFSGSGSGTDFTFTISSLQPEDIATYYCHQHYITPWTFGGGTKVEIKRTVAAPSVFIFPPSDEQLKSGTASVVCLLNNFYPREAKVQWKVDNALQSGNSQESVTEQDSKDSTYSLSSTLTLSKADYEKHKVYACEVTHQGLSSPVTKSFNRGEC | 0.0833 | 105 | 103 | 0.0282 | 115 | 108 | 124 | 89 | – | –
2 | bispecific antibody JS-9 (IgG4) (bispecific antibody, Tetravalent) heavy: DIVMTQSPDSLAVSLGERATINCKASQSVSNDVAWYQQKPGQPPKLLIYYVSHRFTGVPDRFSGSGSGTDFTLTISSLQAEDVAVYFCHQAYRSPWTFGCGTKLEIKGGGGSGGGGSGGGGSGGGGSEVQLVESGGGLVKPGGSLRLSCAASGFTFSSYHMSWVRQAPGKCLELVSAINSNGINTYYLDTVKGRFTISRDNAKNSLYLQMNSLRAEDTAVYYCARHEDYYGFAMDYWGQGTLVTVSSGGGGSGGGGSQVQLVQSGAEVKKPGASVKVSCKTSGYAFTEYTMHWVRQAPGKGLEWMGGINPNTGGTTYNQKFQGRVTLTVDKSSSTAYMELSSLRSEDTVVYYCAKLLRLMYYFDYWGQGTLVTVSSASTKGPSVFPLAPCSRSTSESTAALGCLVKDYFPEPVTVSWNSGALTSGVHTFPAVLQSSGLYSLSSVVTVPSSSLGTKTYTCNVDHKPSNTKVDKRV[human IgG4 Fc with S228P (EU numbers) omitted here] light: DIQMTQSPSSLSASVGDRVTITCQASQDVRTAVAWYQQKPGKAPKLLIYSASYRYTGVPSRFSGSGSGTDFTFTISSLQPEDIATYYCHQHYITPWTFGGGTKVEIKRTVAAPSVFIFPPSDEQLKSGTASVVCLLNNFYPREAKVQWKVDNALQSGNSQESVTEQDSKDSTYSLSSTLTLSKADYEKHKVYACEVTHQGLSSPVTKSFNRGEC | – | – | – | – | – | – | – | – | 0.00419 | 0.0158
